Laboratory results reported in PubChem BioAssay (Tox21).
This list was built around the results that the source calls inconclusive (neither active nor inactive); the mix of calls is not that of the screen. For part of these data: Potencies of inconclusive entries are doubtful fits and often do not repeat. Active and inactive are the calls of the source. Unless noted, the call rests on the fitted dose curve; in most records, active means well fitted curve in the direction sought with a large enough effect in the repeat runs; inconclusive means weak or mixed curves; inactive means no such curve, though single readings can be large; an effect the other way counts as inactive or inconclusive.

Assays:
[1] = qHTS assay to identify small molecule antagonists of the androgen receptor (AR) signaling pathway using the MDA cell line in the presence of 0.5 nM R1881 - cell viability counter screen (AID 1259242); details: MDA-kb2 viability, CellTiter-Fluor protease fluorescence, 16 h; series mostly up to 92.4 µM; further: nearly all actives have a fitted effect of over 45% in size
Method in brief: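 Live-cell protease activity was measured by CellTiter-Fluor fluorescence after 30 min. Before that, MDA-kb2 MMTV-luciferase cells had 16 hr at 37C without CO2, exposed to test compounds and 0.5 nM R1881 final.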

[2] = target: Androgen receptor (Homo sapiens) (UniProt P10275); experiment: qHTS assay to identify small molecule antagonists of the androgen receptor (AR) signaling pathway using the MDA cell line in the presence of 0.5 nM R1881 (AID 1259243); details: MDA-kb2 MMTV-luciferase, R1881 0.5 nM, 16 h; series mostly up to 92.4 µM; further: nearly all actives have a fitted effect of over 50% in size; on activity, negative = inhibition: on the % scale 0 is the no-effect control and ±100 the full control effect
Chain of UniProt P10275 (P10275 whole entry, looked up): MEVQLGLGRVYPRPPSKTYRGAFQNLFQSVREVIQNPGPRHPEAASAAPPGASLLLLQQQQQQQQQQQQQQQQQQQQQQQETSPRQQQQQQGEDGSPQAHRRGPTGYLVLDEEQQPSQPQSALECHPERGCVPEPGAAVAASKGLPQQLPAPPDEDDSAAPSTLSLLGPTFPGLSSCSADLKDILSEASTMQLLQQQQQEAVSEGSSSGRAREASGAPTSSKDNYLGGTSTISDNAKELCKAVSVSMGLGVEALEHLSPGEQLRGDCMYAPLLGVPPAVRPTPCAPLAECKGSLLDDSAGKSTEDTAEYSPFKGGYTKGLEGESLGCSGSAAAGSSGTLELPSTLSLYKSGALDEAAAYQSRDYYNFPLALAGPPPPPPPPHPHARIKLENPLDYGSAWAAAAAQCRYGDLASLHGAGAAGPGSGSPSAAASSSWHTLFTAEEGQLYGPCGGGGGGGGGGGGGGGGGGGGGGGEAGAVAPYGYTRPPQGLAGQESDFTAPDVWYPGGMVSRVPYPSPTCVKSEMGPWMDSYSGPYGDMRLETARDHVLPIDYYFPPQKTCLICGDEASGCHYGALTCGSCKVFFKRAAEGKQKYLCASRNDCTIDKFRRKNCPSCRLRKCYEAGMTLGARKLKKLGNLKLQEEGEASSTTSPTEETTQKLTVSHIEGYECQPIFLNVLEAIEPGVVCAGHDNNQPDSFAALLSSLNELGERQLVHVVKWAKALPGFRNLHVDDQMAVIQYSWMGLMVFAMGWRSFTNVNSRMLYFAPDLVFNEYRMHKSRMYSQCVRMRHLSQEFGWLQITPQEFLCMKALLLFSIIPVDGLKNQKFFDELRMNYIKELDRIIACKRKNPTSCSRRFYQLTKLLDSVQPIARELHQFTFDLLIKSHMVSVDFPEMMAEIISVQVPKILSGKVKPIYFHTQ
Method in brief: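 Luminescent reporter readout (ONE-Glo, 30 min, room temperature) after 16 hr co-treatment of MDA-kb2 cells with test compounds and 0.5 nM R1881 final, at 37C without CO2. The MMTV-driven luciferase responds to both AR and GR.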

[3] = qHTS assay to identify small molecule agonists of the sonic hedgehog signaling (Shh) pathway - cell viability counter screen (AID 1259366); details: NIH/3T3 Gli1-Luc viability, CellTiter-Fluor, 24 h; series mostly up to 92.4 µM; further: nearly all actives have a fitted effect of over 50% in size
Method in brief: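 Cytotoxicity counter screen: CellTiter-Fluor reagent added after 23 h compound exposure, then 1 h at 37C and fluorescence read. Cells were 3T3 Gli1-Luc, seeded 2,000 per well and dosed 4 h post-plating.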

[4] = qHTS assay to identify small molecule agonists of the androgen receptor (AR) signaling pathway in the presence of an antagonist - cell viability counter screen (AID 1259379); details: MDA-kb2 viability, CellTiter-Fluor, 16 h; series mostly up to 92.4 µM; further: nearly all actives have a fitted effect of over 25% in size
Method in brief: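 Cytotoxicity counter-screen run in the same wells as the nilutamide-challenged (3.0 µM final) AR agonist assay in MDA-kb2 cells. Compounds tested at 15 concentrations for 16 h, 37 °C without CO2; CellTiter-Fluor fluorescence read.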

[5] = qHTS assay to identify small molecule agonists of the estrogen receptor beta (ER-beta) signaling pathway - cell viability counter screen (AID 1259380); details: ER-beta-bla HEK293T viability, CellTiter-Glo luminescence, 16 h; series mostly up to 92.4 µM; further: nearly all actives have a fitted effect of over 30% in size
Method in brief: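 Cell viability counter screen: CellTiter-Glo luminescence (30 min, room temperature) measured in the same wells as the beta-lactamase readout, after 16 hr compound exposure at 37C of ER-beta-bla HEK293T cells in 2% charcoal-stripped FBS medium.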

[6] = qHTS assay to identify small molecule antagonists of the estrogen receptor beta (ER-beta) signaling pathway - cell viability counter screen (AID 1259382); details: ER-beta-UAS-bla HEK293T viability, CellTiter-Glo luminescence, 16 h; series mostly up to 92.4 µM; further: nearly all actives have a fitted effect of over 55% in size
Method in brief: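 Cytotoxicity was measured in the same wells by CellTiter-Glo luminescence after 30 min at room temperature. Cells were ER-beta-bla HEK293T in charcoal-stripped serum, given compound together with 1 nM E2 and incubated 16 h at 37C.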

[7] = target: Thyrotropin receptor (Homo sapiens) (UniProt P16473); experiment: qHTS assay to identify small molecule antagonists of the thyroid stimulating hormone receptor (TSHR) signaling pathway (AID 1259385; calls by dose curve; further: nearly all actives have a fitted effect of over 20% in size; on activity change, negative = inhibition: on the % scale 0 is the no-effect control and ±100 the full control effect); details: TSHR-HEK293 cAMP HTRF, TSH-stimulated antagonist mode; activity change, negative = inhibition: at 92.4 µM (top of the series) unless noted
Chain of UniProt P16473 (P16473 whole entry, looked up): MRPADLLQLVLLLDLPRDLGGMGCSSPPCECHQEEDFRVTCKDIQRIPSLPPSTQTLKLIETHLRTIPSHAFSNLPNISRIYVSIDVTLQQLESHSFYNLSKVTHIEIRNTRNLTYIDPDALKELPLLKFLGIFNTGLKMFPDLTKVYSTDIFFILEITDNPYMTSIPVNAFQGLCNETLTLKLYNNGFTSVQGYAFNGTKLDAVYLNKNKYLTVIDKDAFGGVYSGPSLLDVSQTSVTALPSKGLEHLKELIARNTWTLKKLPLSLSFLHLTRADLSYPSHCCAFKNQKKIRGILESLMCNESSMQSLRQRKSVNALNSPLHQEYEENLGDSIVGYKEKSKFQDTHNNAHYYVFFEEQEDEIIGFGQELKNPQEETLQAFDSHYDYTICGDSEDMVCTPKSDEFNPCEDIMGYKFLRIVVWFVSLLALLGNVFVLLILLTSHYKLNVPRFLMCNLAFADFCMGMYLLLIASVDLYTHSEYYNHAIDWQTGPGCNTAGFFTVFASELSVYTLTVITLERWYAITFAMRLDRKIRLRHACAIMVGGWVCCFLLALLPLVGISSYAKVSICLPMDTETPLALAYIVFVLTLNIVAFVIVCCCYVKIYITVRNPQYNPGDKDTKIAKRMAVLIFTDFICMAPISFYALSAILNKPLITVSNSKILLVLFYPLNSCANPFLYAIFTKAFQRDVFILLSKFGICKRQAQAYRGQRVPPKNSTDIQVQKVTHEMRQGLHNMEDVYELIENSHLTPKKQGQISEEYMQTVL
Method in brief: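 Antagonist mode: compound-treated TSHR-expressing HEK293 cells were stimulated with 1.5 ng/mL TSH (final) in presence of Ro20-1724 for 30 min at RT. HTRF cAMP detection after 1 h; each compound tested at 15 concentrations, triplicate.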

[8] = qHTS assay to identify small molecule agonists of the estrogen receptor alpha (ER-alpha) signaling pathway in the presence of an antagonist - cell viability counter screen (AID 1259386); details: VM7Luc4E2 viability, CellTiter-Fluor fluorescence, 22 h; series mostly up to 92.4 µM; further: nearly all actives have a fitted effect of over 30% in size
Method in brief: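 Compounds tested at 15 concentrations for 22 h at 37C alongside 10.0nM (final) ICI-182,780 antagonist, in VM7Luc4E2 cells grown in phenol red-free, charcoal-stripped medium. Viability read by CellTiter-Fluor fluorescence after 1 h reagent incubation.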

[9] = target: Estrogen receptor (Homo sapiens) (UniProt P03372); experiment: qHTS assay to identify small molecule antagonists of the estrogen receptor alpha (ER-alpha) signaling pathway using the BG1 cell line in the presence of 0.1 nM 17-beta-estradiol (AID 1259244); details: VM7Luc4E2 (BG1) ERE-luciferase, antagonist mode, 0.1 nM E2, 22 h; series mostly up to 92.4 µM; further: nearly all actives have a fitted effect of over 50% in size; on activity change, negative = inhibition: on the % scale 0 is the no-effect control and ±100 the full control effect
Chain of UniProt P03372 (P03372 whole entry, looked up): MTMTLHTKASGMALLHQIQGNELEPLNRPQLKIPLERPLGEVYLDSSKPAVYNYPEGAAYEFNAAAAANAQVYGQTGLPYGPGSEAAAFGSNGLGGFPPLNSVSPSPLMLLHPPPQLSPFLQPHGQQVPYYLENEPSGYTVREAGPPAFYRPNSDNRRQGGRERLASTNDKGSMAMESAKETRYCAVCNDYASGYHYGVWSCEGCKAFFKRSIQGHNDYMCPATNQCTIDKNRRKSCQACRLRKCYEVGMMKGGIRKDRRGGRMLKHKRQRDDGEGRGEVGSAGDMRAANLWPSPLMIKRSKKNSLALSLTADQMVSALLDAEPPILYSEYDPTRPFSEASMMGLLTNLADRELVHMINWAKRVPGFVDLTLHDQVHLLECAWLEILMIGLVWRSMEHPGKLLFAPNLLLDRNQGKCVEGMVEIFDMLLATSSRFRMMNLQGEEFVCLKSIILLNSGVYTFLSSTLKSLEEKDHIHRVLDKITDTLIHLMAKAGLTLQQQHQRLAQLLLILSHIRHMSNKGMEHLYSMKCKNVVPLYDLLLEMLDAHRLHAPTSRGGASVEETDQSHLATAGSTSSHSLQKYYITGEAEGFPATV
Method in brief: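 Luciferase luminescence (ONE-Glo, 30 min at room temperature) was read after 22 hr at 37C exposure to compounds plus 17beta-estradiol at 0.1 nM final. Cells were VM7Luc4E2 with endogenous ER-alpha and an ERE-driven luciferase, pre-cultured 5 days in hormone-depleted medium.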

[10] = qHTS assay to identify small molecule HDAC inhibitors (AID 1259364); details: HCT-116 HDAC-Glo I/II luminescence, 2 h; series mostly up to 92.4 µM; further: nearly all actives have a fitted effect of over 45% in size
Method in brief: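 Luminescence read after 30 min room-temperature HDAC-Glo incubation measures cellular class I/II HDAC activity. Compounds were applied for 2 hr at 37 C to HCT-116 wild-type cells seeded the day before.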

[11] = qHTS assay to identify small molecule antagonists of the sonic hedgehog signaling (Shh) pathway (AID 1259369; calls by dose curve; further: nearly all actives have a fitted effect of over 45% in size); details: NIH/3T3 Gli1-Luc reporter, Shh antagonist, luminescence 24 h; series mostly up to 92.4 µM
Method in brief: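 Antagonist mode: compound added to 3T3 Gli1-Luc cells followed by conditioned-medium stimulation, 24 h at 37 C, 5% CO2. Inhibition taken as loss of Gli1-driven luciferase luminescence.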

[12] = target: Estrogen receptor beta (Homo sapiens) (UniProt Q92731); experiment: qHTS assay to identify small molecule agonists of the estrogen receptor beta (ER-beta) signaling pathway (AID 1259377; active means well fitted activation curve with a large enough effect in the signal ratio in the repeat runs, not every such curve was filed as active; inconclusive means weak or mixed curves, or effect the other way; the % refers to the signal ratio); details: ER-beta-UAS-bla HEK293T, beta-lactamase FRET ratio, 16 h; activation: at 92.4 µM (top of the series) unless noted
Chain of UniProt Q92731 (Q92731 whole entry, looked up): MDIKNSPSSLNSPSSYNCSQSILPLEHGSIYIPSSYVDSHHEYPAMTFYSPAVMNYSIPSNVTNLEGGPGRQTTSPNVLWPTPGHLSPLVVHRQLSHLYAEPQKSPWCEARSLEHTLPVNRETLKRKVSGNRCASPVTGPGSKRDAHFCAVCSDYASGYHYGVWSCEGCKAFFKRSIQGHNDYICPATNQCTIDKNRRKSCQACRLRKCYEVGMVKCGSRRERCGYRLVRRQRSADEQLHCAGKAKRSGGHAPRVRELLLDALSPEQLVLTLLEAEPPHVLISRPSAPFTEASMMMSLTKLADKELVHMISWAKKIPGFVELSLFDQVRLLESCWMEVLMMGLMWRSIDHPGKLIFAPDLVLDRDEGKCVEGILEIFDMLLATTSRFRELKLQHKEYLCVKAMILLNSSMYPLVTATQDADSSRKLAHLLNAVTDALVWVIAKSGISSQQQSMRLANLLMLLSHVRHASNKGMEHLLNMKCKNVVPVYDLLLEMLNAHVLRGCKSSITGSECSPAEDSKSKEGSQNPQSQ
Method in brief: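 Ratiometric beta-lactamase FRET read-out came after 2 h substrate loading at room temperature. It followed 16 h compound treatment at 37C of GripTite HEK293T cells carrying a UAS-bla reporter, plated in 2% charcoal-stripped FBS medium.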

[13] = target: Estrogen receptor beta (Homo sapiens) (UniProt Q92731); experiment: qHTS assay to identify small molecule antagonists of the estrogen receptor beta (ER-beta) signaling pathway (AID 1259378; active means well fitted inhibition curve with a large enough effect in the signal ratio in the repeat runs, not every such curve was filed as active; inconclusive means weak or mixed curves, or effect the other way; inactive means no such curve, though single readings can be large or run the other way; the % refers to the signal ratio); details: ER-beta-UAS-bla HEK293T, beta-lactamase FRET ratio, 16 h; activity, negative = inhibition: at 92.4 µM (top of the series) unless noted
Method in brief: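 Antagonist mode: compounds added to beta-lactamase reporter HEK293T ER-beta-UAS cells stimulated with E2 (1nM final), 16 hr at 37C. LiveBLAzer B/G FRET substrate, 2 hours room temperature, fluorescence read-out.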

[14] = qHTS assay to identify small molecule phospholipidosis (PLD) inducers (AID 1259344; active means well fitted curve in the direction sought with a large enough effect; inconclusive means small, poorly fitted or top-dose-only effect, or another doubt; inactive means no such curve, though single readings can be large; an effect the other way counts as inactive or inconclusive); details: HepG2 phospholipidosis, LipidTOX Red imaging, 24 h; series mostly up to 38.3 µM
Method in brief: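 Accumulated phospholipid, stained red by LipidTOX during 24 h compound treatment of HepG2 cells at 37 C, is quantified from images as pit number and intensity, normalised per cell using Hoechst-stained nuclei.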

[15] = qHTS assay to identify small molecule agonists or antagonists of the thyroid stimulating hormone receptor (TSHR) signaling pathway - wild type cell line counter screen (AID 1259384; calls by dose curve; on cAMP activity change: on the % scale 0 is the no-effect control and ±100 the full control effect); details: HEK293 wild type, cAMP HTRF counter-screen; cAMP activity change: at 92.4 µM (top of the series), hits give high values unless noted
Method in brief: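 Counter screen in untransfected Hek293: compounds (15-point titration, triplicate) plus phosphodiesterase inhibitor Ro20-1724 added after 18 h plating; 30 min RT. Intracellular cAMP via competitive d2/cryptate immunoassay, 1 h incubation.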

[16] = qHTS assay to identify small molecule antagonists of the sonic hedgehog signaling (Shh) pathway - cell viability counter screen (AID 1259367); details: NIH/3T3 Gli1-Luc viability, CellTiter-Fluor, 24 h; series mostly up to 92.4 µM; further: nearly all actives have a fitted effect of over 55% in size
Method in brief: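 CellTiter-Fluor signal in conditioned medium-stimulated 3T3 Gli1-Luc cells, 23 hr compound exposure, 37C.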

[17] = qHTS assay to identify small molecule HDAC inhibitors - cell viability counter screen (AID 1259365); details: HCT-116 viability, CellTiter-Glo ATP luminescence, 2 h; series mostly up to 92.4 µM; further: nearly all actives have a fitted effect of over 50% in size
Method in brief: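 CellTiter-Glo luminescence (30 min, room temperature) reported viability after a 2 h compound exposure at 37 C. Cells: wild-type HCT-116, 1,500 per well, seeded the night before.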

[18] = qHTS assay to identify small molecule agonists of the sonic hedgehog signaling (Shh) pathway (AID 1259368; calls by dose curve; further: nearly all actives have a fitted effect of over 15% in size); details: NIH/3T3 Gli1-Luc reporter, luciferase, 24 h; series mostly up to 92.4 µM
Method in brief: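 Luminescence was read after 30 min at room temperature with luciferase reagent. Before that, 3T3Gli1-Luc cells (NIH/3T3 clone, stable Gli1-Luc reporter; 2,000/well) were exposed to compounds for 24 hr at 37C, 5% CO2, compounds being added 4 hr post-plating.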
Potency means the concentration at half of the fitted maximal effect; tags describe the fitted curve by direction and shape or compound fluorescence and quenching.

CC/C(=C(\c1ccc(O)cc1)c1ccc(OCCN(C)C)cc1)c1ccccc1
Potency [1]: inconclusive: 68.7 µM [cytotoxic, single point] | Potency [2]: active: 61.3 µM | Potency [3]: active: 21.7 µM | Potency [4]: active: 61.3 µM | Potency [5]: active: 24.4 µM | Potency [6]: active: 27.4 µM | Potency [7]: active: 77.1 µM | Potency [8]: active: 68.7 µM

N#CSCSc1nc2ccccc2s1
Potency [1]: inconclusive: 68.6 µM [cytotoxic, single point] | Potency [9]: inconclusive: 68.6 µM [inhibitor, single point] | Potency [10]: active: 19.3 µM | Potency [11]: active: 1.93 µM | Potency [12]: inconclusive: 30.6 µM [rising, partial curve] | Potency [13]: inconclusive: 30.6 µM | Potency [4]: inconclusive: 61.1 µM [cytotoxic, partial curve] | Potency [6]: inconclusive: 9.69 µM [cytotoxic, full curve] | Potency [7]: inconclusive: 68.6 µM

CCCCCCCCCCOCC(O)CN (stereo not drawn)
Potency [1]: inconclusive: 33.5 µM [cytotoxic, single point] | Potency [2]: inconclusive: 33.5 µM [inhibitor, single point] | Potency [9]: inactive | Potency [14]: inconclusive: 28.2 µM [activator, partial curve, poor fit] | Potency [3]: inconclusive: 33.5 µM [cytotoxic, single point] | Potency [11]: active: 11.9 µM | Potency [12]: inconclusive: 33.5 µM [cytotoxic] | Potency [13]: inconclusive: 33.5 µM [cytotoxic] | Potency [4]: inconclusive: 33.5 µM [cytotoxic, single point] | Potency [5]: active: 26.6 µM | Potency [15]: inactive

[Cl][Bi]([Cl])([c]1ccccc1)([c]1ccccc1)[c]1ccccc1
Potency [1]: active: 27.1 µM | Potency [2]: active: 13.6 µM | Potency [16]: active: 0.136 µM | Potency [11]: active: 0.0242 µM | Potency [13]: inconclusive: 43 µM [cytotoxic, partial curve, poor fit] | Potency [4]: active: 60.8 µM | Potency [5]: active: 24.2 µM | Potency [15]: inconclusive: 21.6 µM | Potency [7]: inactive

CCOc1nc2cccc(C(=O)OC(C)OC(=O)OC3CCCCC3)c2n1Cc1ccc(-c2ccccc2-c2nn[nH]n2)cc1 (stereo not drawn)
Potency [1]: inconclusive: 12.2 µM [cytotoxic, single point] | Potency [9]: inconclusive: 61.1 µM [inhibitor, partial curve, poor fit] | Potency [17]: inconclusive: 34.3 µM [cytotoxic, partial curve, poor fit] | Potency [3]: inconclusive: 12.2 µM [cytotoxic, single point] | Potency [16]: inconclusive: 48.5 µM [cytotoxic, partial curve] | Potency [13]: inconclusive: 10.9 µM [inhibitor, full curve] | Potency [4]: inconclusive: 61.1 µM [cytotoxic, single point]

Nc1ccc2c(c1)CN1C(=O)c3ccccc3C1=N2
Potency [1]: inconclusive: 13 µM [rising, partial curve] | activity, negative = inhibition [2]: inactive: 57.2% [at 19 µM] | Potency [17]: active: 11.6 µM | Potency [3]: inconclusive: 13 µM [rising, partial curve] | Potency [16]: inconclusive: 11.6 µM [rising, partial curve] | Potency [18]: inconclusive: 4.61 µM [activator, partial curve] | Potency [13]: inconclusive: 14.6 µM [rising, single point] | Potency [4]: inconclusive: 10.3 µM [rising, partial curve] | Potency [6]: inconclusive: 13 µM [cytotoxic] | activity change, negative = inhibition [7]: inconclusive: -13% [at 19 µM] | Potency [8]: inconclusive: 11.6 µM [rising, partial curve]

O=C(Nc1cccc(C(F)(F)F)c1)c1cc(Br)cc(Br)c1O
Potency [1]: inconclusive: 5.45 µM [cytotoxic, full curve] | Potency [9]: active: 4.86 µM | Potency [10]: active: 3.86 µM | Potency [16]: inconclusive: 17.2 µM [cytotoxic, partial curve] | Potency [11]: active: 1.72 µM | Potency [12]: inconclusive: 8.63 µM [rising, full curve] | activity, negative = inhibition [13]: inconclusive: -37.3% | Potency [8]: inconclusive: 9.69 µM [cytotoxic, full curve]
